According to PubChem BioAssay AID360 (National Center for Advancing Translational Sciences (NCATS), 2006):
The campaign covered roughly 48,000 compounds. About 550 (1.1%) were called active. About 4% were inconclusive and are not listed. Cut-off read from the data, not from the text of the source: active = potency below about 15 µM; inconclusive = mostly about 16 µM to 33 µM; inactive = weaker than that. Some of the results follow.

molecular target: Lysosomal acid glucosylceramidase (Homo sapiens) (UniProt P04062); test: Glucocerebrosidase; details: purified enzyme, resorufin glucoside fluorescence (screen aimed at inhibitors), 20 min;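 note: the screen sought inhibitors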
Sequence of UniProt P04062 (P04062 whole entry, looked up): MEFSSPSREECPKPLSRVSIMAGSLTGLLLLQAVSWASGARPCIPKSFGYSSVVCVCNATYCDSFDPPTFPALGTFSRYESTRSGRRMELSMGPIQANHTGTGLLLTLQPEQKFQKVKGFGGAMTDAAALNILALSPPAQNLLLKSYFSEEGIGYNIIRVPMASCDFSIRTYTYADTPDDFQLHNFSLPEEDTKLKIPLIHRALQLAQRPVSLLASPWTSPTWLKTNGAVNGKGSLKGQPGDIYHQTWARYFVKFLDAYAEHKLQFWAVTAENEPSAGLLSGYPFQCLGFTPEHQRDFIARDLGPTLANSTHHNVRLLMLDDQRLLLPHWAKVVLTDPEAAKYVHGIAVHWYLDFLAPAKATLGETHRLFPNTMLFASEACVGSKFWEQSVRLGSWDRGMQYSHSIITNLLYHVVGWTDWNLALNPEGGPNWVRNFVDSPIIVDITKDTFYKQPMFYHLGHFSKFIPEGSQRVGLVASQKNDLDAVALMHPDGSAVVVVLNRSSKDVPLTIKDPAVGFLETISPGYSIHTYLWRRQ
Summary of the method: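 Normal human glucocerebrosidase (0.2 nM final) was assayed with resorufin β-D-glucopyranoside (30 uM final) in 50mM citric acid/KH2PO4, 10mM sodium taurocholate, 0.01% tween-20, pH 5.9. Compounds were titrated; fluorescence (Ex 548, Em 600) read after 20 min at RT.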
Potency is the fitted concentration of half-maximal effect.

Compound	Potency
CCn1c(CNc2ccccc2Cl)nnc1SCC(=O)NCc1ccccc1	inactive: > 76.9 µM
CC1CCC(C(=O)NC(C(=O)N2CCC(N3CCCCC3)CC2)C(C)C)CC1 (stereo not given)	inactive: > 76.9 µM
CC(=O)Nc1ccc(S(=O)(=O)N2CCN(Cc3ccncc3)CC2)cc1	inactive: > 76.9 µM
CN1C(=O)C2(C(C#N)=C(N)Oc3c2oc(CO)cc3=O)c2ccccc21 (stereo not given)	inactive: > 76.9 µM
COc1ccccc1OCCCn1c(=O)oc2ccc(C)cc21	inactive: > 76.9 µM
COc1ccccc1CNC(=O)CNC(=O)Cn1cnc2ccccc2c1=O	inactive: > 76.9 µM
Cc1ccccc1CSCC(=O)c1c(N)n(C)c(=O)n(C)c1=O	inactive: > 76.9 µM
COc1ccc(N2CCN(C(=O)CSc3ccccc3N)CC2)cc1	inactive: > 76.9 µM
Cc1cccnc1N(C(=O)Nc1ccccc1)C1=NCC(C)(C)S1	inactive: > 76.9 µM
O=C(NCC(=O)N(c1ccccc1F)C(C(=O)NCC1CCCO1)c1ccccc1)c1ccco1 (stereo not given)	inactive: > 76.9 µM
N#Cc1nc(-c2ccco2)oc1N1CCCC1	inactive: > 76.9 µM
COc1ccc(CCNC(=O)CN2C(=O)c3ccccc3S2(=O)=O)cc1	inactive: > 76.9 µM
COc1ccc(-n2nc(C(=O)NCc3ccco3)c3c4ccccc4n(C)c3c2=O)cc1Cl	inactive: > 76.9 µM
CSc1nc2ccccc2n1CC(=O)Nc1c(C)n(C)n(-c2ccccc2)c1=O	inactive: > 76.9 µM
COc1ccc(OC)c(NC=C2C(=O)OC(C)(C)OC2=O)c1	inactive: > 76.9 µM
COC(=O)c1ccccc1N1C(=O)C2C(C1=O)C1C=CC2C12CC2 (stereo not given)	inactive: > 76.9 µM
Cn1c(=O)c2cc(S(=O)(=O)Nc3cccc(F)c3)ccc2n(C)c1=O	inactive: > 76.9 µM
C=CCN1CC2CC3(COc4cc(C)cc(C)c4)C=CC2(O3)C1=O (stereo not given)	inactive: > 76.9 µM
COc1ccc(-n2c(=O)c3c4c(sc3n(CC(=O)NCc3ccco3)c2=O)CCC4)c(OC)c1	inactive: > 76.9 µM
CCN1CCN(CCCNC(=O)C2c3ccccc3C(=O)N(C)C2c2ccc(OC)cc2)CC1 (stereo not given)	inactive: > 76.9 µM
Cn1c(=O)c2c(n(C)c1=O)=NC1(CCCCC1)N=2	inactive: > 76.9 µM
COc1ccccc1-c1cc(C(=O)Nc2c(C)n(C)n(-c3ccccc3)c2=O)no1	inactive: > 76.9 µM
CCOC(=O)c1ccccc1NC(=O)CSc1nc2ccccc2o1	inactive: > 76.9 µM

Compound	Potency
O=C(CCCSc1nc2ccccc2s1)NC1=NCCS1	inactive
CC(C)C(=O)NCCc1nc2ccccc2n1C	inactive: > 76.9 µM
CCC(C)C(NC(=O)C1CCC(C)CC1)C(=O)NCc1cccnc1 (stereo not given)	inactive: > 76.9 µM
O=C1CN(C(=O)COC(=O)CCC(=O)c2ccc3c(c2)OCCO3)c2ccccc2N1	inactive: > 76.9 µM
O=C(O)CSc1nnc(Cn2cnc3ccccc32)n1CCc1ccccc1	inactive: > 76.9 µM
CCOC(=O)CCc1c(C)nc2ncnn2c1C	inactive: > 76.9 µM
CC(=O)OCn1nnc2ccccc2c1=O	inactive: > 76.9 µM
CSCCC(NS(=O)(=O)c1ccc(Cl)cc1)C(=O)OCC(=O)N1CCOCC1 (stereo not given)	inactive: > 76.9 µM
O=S(=O)(Nc1cccnc1)c1cccs1	inactive: > 76.9 µM
O=C(Nc1nc(-c2ccc(Cl)s2)cs1)c1ccncc1	inactive: > 76.9 µM
COCc1c(C)cc(C)c(/C=N/O)c1C	inactive: > 76.9 µM
C1CCC2(CC1)OCC1(CO2)COC2(CCCCC2)OC1	inactive: > 76.9 µM
CC(C)NS(=O)(=O)c1ccc(OCC(=O)Nc2ccc3c(c2)OCO3)c(Cl)c1	inactive: > 76.9 µM
O=C(c1cccc(C(=O)N2CCN(c3ncccn3)CC2)c1)N1CCN(c2ncccn2)CC1	inactive: > 76.9 µM
COc1ccc(NC(=O)c2c(OC)cccc2OC)c(OC)c1	inactive: > 76.9 µM
CCN(CC)C(=O)c1ccc(NS(=O)(=O)c2ccccc2)cc1	inactive: > 76.9 µM
CCCN1C(=O)c2ccc(C(=O)Nc3cc(C)on3)cc2C1=O	inactive: > 76.9 µM
CCCCCC(=O)Nc1ccc(S(=O)(=O)Nc2nccnc2OC)cc1	inactive: > 76.9 µM
COc1ccccc1C(=O)N(CN1CCCC1=O)c1cccc(Cl)c1	inactive: > 76.9 µM
Cc1cc(C)nc(SCCC(=O)N(C)C)n1	inactive: > 76.9 µM
N=C1C(c2nc(-c3ccc(Cl)cc3)cs2)=C(O)CN1CCCN1CCOCC1	inactive: > 76.9 µM
Cc1c(C)n(Cc2ccccc2)c2ncnc(N)c12	inactive: > 76.9 µM
O=C(CCC(=O)N(CC(=O)NC1CCCCC1)c1ccc2c(c1)OCO2)Nc1ccccn1	inactive: > 76.9 µM

Compound	Potency
COc1cccc(-c2cc(C(F)(F)F)n3ncc(C(=O)O)c3n2)c1	inactive: > 76.9 µM
NS(=O)(=O)c1ccc(NC(=O)CSc2nnc(-c3cnccn3)n2-c2ccccc2)cc1	inactive: > 76.9 µM
CC(=O)Nc1ccc(S(=O)(=O)Nc2nccc(C3Cc4ccccc4C(=O)O3)n2)cc1 (stereo not given)	inactive: > 76.9 µM
COc1ccc(NC(=O)C2CCCN2c2ccc(OC)c(OC)c2)cc1OC (stereo not given)	inactive: > 76.9 µM
O=c1[nH]cnc2c1oc1ccccc12	inactive: > 76.9 µM
C[N+](C)(C)C/C=C1/COCO1	inactive: > 76.9 µM
COC(=O)c1cn(NC(=O)c2cccnc2)c(=O)c2ccccc12	inactive: > 76.9 µM
CCOC(=O)C1=C(c2ccccc2)NC(SCC(=O)NC2CCCCC2)=C(C#N)C1c1ccco1 (stereo not given)	active: 7.7 µM
Cn1c(=O)c2c(nc(CN3CCOCC3)n2Cc2ccccc2)n(C)c1=O	inactive: > 76.9 µM
COC(=O)CCC(=O)Nc1sc2c(c1C#N)CCCC2	inactive: > 76.9 µM
CCCN1C(=O)C2(/C(=C(\O)c3ccc4c(c3)OCCO4)C(=O)C(=O)N2CCCOC)c2ccccc21 (stereo not given)	inactive: > 76.9 µM
Cc1ccc(C(O)c2nc3ccccc3n2C(C)C)cc1 (stereo not given)	inactive: > 76.9 µM
O=C(Cn1cnc2ccccc2c1=O)Nc1ccc2c(c1)CCC2	inactive: > 76.9 µM
CCOc1cc(S(=O)(=O)NCc2ccco2)c(OCC)cc1-n1cnnn1	inactive: > 76.9 µM
Cc1cc(C)n2cc(CSCc3ccco3)nc2n1	inactive: > 76.9 µM
Cc1ccc(C)n1NC(=O)c1ccc(Cl)cc1Cl	inactive: > 76.9 µM
COc1cc(CN2CCC(C(=O)NC3CCCC3)CC2)cc(OC)c1O	inactive: > 76.9 µM
C/C(N)=C(/C#N)C(=O)CSc1nc2cc(Cl)ccc2s1	inactive: > 76.9 µM
COc1ccc(NC(=O)CSc2nnc(-c3ccccc3C)n2N)cc1	inactive: > 76.9 µM
CCC(=O)N1CCc2cc(S(=O)(=O)NCCN3CCC(C)CC3)ccc21	inactive: > 76.9 µM
NC(=O)c1ccccc1NC(=O)CN1CCOCC1	inactive: > 76.9 µM
Cc1cccc2cc(CN(Cc3ccco3)C(c3nnnn3CCc3ccccc3)C(C)C)c(=O)[nH]c12 (stereo not given)	inactive: > 76.9 µM
Cc1cc(=O)n2nc(N3CCCC(C(=O)N4CCN(c5ccccc5)CC4)C3)sc2n1 (stereo not given)	inactive: > 76.9 µM

Compound	Potency
CCS(=O)(=O)N1CCCC(C(=O)NCc2ccc3c(c2)OCO3)C1 (stereo not given)	inactive: > 76.9 µM
Cc1ccccc1NS(=O)(=O)c1cc(S(C)(=O)=O)ccc1Cl	inactive: > 76.9 µM
COC(=O)Cc1cc(=O)n(-c2nc3ccccc3s2)[nH]1	inactive: > 76.9 µM
CCOC(=O)C1(C)NC(c2ccc(OC)cc2OC)C2C(=O)N(c3cccc(OC)c3)C(=O)C21 (stereo not given)	inactive: > 76.9 µM
CC(C)(C)c1cc(NC(=O)C2CCCO2)no1 (stereo not given)	inactive: > 76.9 µM
O=C(Nc1nccs1)c1ccc(Cl)c(S(=O)(=O)N2CCOCC2)c1	inactive: > 76.9 µM
CC(=O)c1c(C)nc(-c2ccc(Cl)cc2)nc1NC(=O)C(C)C	inactive: > 76.9 µM
CC1(C)CC(=O)NC=C(c2ccccc2)C1	inactive: > 76.9 µM
Cc1ccc(C(=O)OCc2cc3ccccc3[nH]c2=O)cc1	inactive: > 76.9 µM
COc1cccc(NC2CC(=O)N(CCc3ccccc3)C2=O)c1 (stereo not given)	inactive: > 76.9 µM
CCOC(=O)C1C(c2cccs2)NC(=O)NC1(O)C(F)(F)F (stereo not given)	inactive: > 76.9 µM
CCOc1ccccc1NC(=O)N1CCCC1C(=O)Nc1ccc(NC(C)=O)cc1 (stereo not given)	inactive: > 76.9 µM
OC(C#CCN1CCOCC1)(c1ccccc1)C1CC1 (stereo not given)	inactive: > 76.9 µM
CC(=O)c1cccc(NC(=O)N2CCCC2C(=O)Nc2ccccc2C)c1 (stereo not given)	inactive: > 76.9 µM
C1CN(c2nc3nonc3nc2N2CCOCC2)CCO1	inactive: > 76.9 µM
COc1ccc(C(NC(=O)CNC(C)=O)C(=O)Nc2ccc3c(c2)OCCO3)cc1 (stereo not given)	inactive: > 76.9 µM
O=C(c1ccccc1)N1CCN(Cc2c[nH]c3ccccc23)CC1	inactive: > 76.9 µM
COc1ccc(N2CC(C)Cn3c2nc2c3c(=O)n(Cc3ccccc3F)c(=O)n2C)c(OC)c1 (stereo not given)	inactive: > 76.9 µM
CCCCNC(=O)CCCCCn1c(=O)[nH]c2cc(OC)c(OC)cc2c1=O	inactive: > 76.9 µM
CC(C)OC(=O)c1ccc(NC(=O)C2C3CC4OC(=O)C2C4C3)cc1 (stereo not given)	inactive: > 76.9 µM
Cc1nc2ccccc2c(=O)n1NC(=O)c1ccccc1Cl	inactive: > 76.9 µM
